This is an account of results in paper PMC11995724, “Antibiotic target discovery by integrated phenotypic and activity-based profiling of electrophilic fragments” (Cell chemical biology, 2025).

Screen size: about 3,200 compounds; about 75 (2%) showed an effect of 50% or more. The list shows a part of the results.

This experiment has as its system T1, S. aureus MSSA476.
T1 construct: MSSA476
Also on record: species or system S. aureus MSSA476 (TSB) or V. cholerae SAD30 (LB); 384-well bacterial growth screen at 25 uM, OD600 relative to DMSO control. Conditions: relative growth, OD600, TSB; 25 µM; inhibitor.
Turning to `CN(C)c1ccc(C=C(C#N)C(N)=O)cc1` [9-O04, 2-cyano-3-[4-(dimethylamino)phenyl]prop-2-enamide], the “% of control remaining” value worked out at 127.64%.

As for `O=C(CCl)Nc1nnc(-c2ccccc2Cl)s1` [6-K17, 2-chloro-N-[5-(2-chlorophenyl)-1,3,4-thiadiazol-2-yl]acetamide], the “% of control remaining” value stood at 97.3171%.

With `C=CC(=O)N1CCOC2(CCS(=O)(=O)C2)C1` (stereo not shown) [2-C06, 9-(prop-2-enoyl)-6-oxa-2lambda6-thia-9-azaspiro[4.5]decane-2,2-dione], the “% of control remaining” value is listed as 106.876%.

As for `C=CC(=O)NCc1ccc(C(=O)N2CCC(C#N)CC2)cc1` [3-P05, N-{[4-(4-cyanopiperidine-1-carbonyl)phenyl]methyl}prop-2-enamide], the “% of control remaining” value turned out to be 86.7218%.

For `COc1ccccc1NC(=O)C(C#N)=Cc1ccccc1F` [8-E11, 2-cyano-3-(2-fluorophenyl)-N-(2-methoxyphenyl)prop-2-enamide], the “% of control remaining” value amounted to 129.793%.

As to `CC(Cl)C(=O)NCCc1csc(N2CCCC2)n1` (stereo not shown) [7-O08, 2-chloro-N-{2-[2-(pyrrolidin-1-yl)-1,3-thiazol-4-yl]ethyl}propanamide], the “% of control remaining” value was 87.2841%.

On to `COc1ccccc1CN1C(=O)C=CC1=O` [10-P21, 1-[(2-methoxyphenyl)methyl]-2,5-dihydro-1H-pyrrole-2,5-dione], for which the “% of control remaining” value stood at 75.9375%.

For `C=CC(=O)N1CCC(NC(C)=O)(c2noc(C)n2)C1` (stereo not shown) [2-G16, N-[3-(5-methyl-1,2,4-oxadiazol-3-yl)-1-(prop-2-enoyl)pyrrolidin-3-yl]acetamide], the “% of control remaining” value was 93.2985%.

In the case of `CCOc1ccc(-n2c(C)cc(C(=O)CCl)c2C)cc1` [10-K08, 2-chloro-1-[1-(4-ethoxyphenyl)-2,5-dimethyl-1H-pyrrol-3-yl]ethan-1-one], the “% of control remaining” value was 38.75%.

Regarding `COc1ccc2[nH]c(C)c(C(=O)CCl)c2c1` [10-L05, 2-chloro-1-(5-methoxy-2-methyl-1H-indol-3-yl)ethan-1-one], the “% of control remaining” value turned out to be 73.4375%.

With `CC(Cl)C(=O)N1CCCCC1c1cnn(C)c1` (stereo not shown) [7-A03, 2-chloro-1-[2-(1-methyl-1H-pyrazol-4-yl)piperidin-1-yl]propan-1-one], the “% of control remaining” value was 97.0173%.

As to `CN(CC(=O)Nc1ccc(F)cc1)C(=O)CCl` [4-B05, 2-chloro-N-{[(4-fluorophenyl)carbamoyl]methyl}-N-methylacetamide], the “% of control remaining” value turned out to be 104.05%.

Regarding `Cc1nc2cc(=O)[nH]n2c(C)c1CNC(=O)C(C)Cl` (stereo not shown) [7-B07, 2-chloro-N-({5,7-dimethyl-2-oxo-1H,2H-pyrazolo[1,5-a]pyrimidin-6-yl}methyl)propanamide], the “% of control remaining” value is on record as 113.344%.

With `C=CC(=O)N1CCC(C(=O)N[C@]2(C(=O)OC)CC[C@@H](C)CC2)CC1` [3-E17, methyl (1r,4r)-4-methyl-1-[1-(prop-2-enoyl)piperidine-4-amido]cyclohexane-1-carboxylate], the “% of control remaining” value turned out to be 118.415%.

Take `Cc1cc(C(=O)CCl)c(C)n1Cc1ccccc1Cl` [10-P16, 2-chloro-1-{1-[(2-chlorophenyl)methyl]-2,5-dimethyl-1H-pyrrol-3-yl}ethan-1-one]: the “% of control remaining” value stood at 127.813%.

With `COc1cc2c(cc1OC)C(c1ccccc1)N(C(=O)CCl)CC2` (stereo not shown) [6-K12, 2-chloro-1-(6,7-dimethoxy-1-phenyl-1,2,3,4-tetrahydroisoquinolin-2-yl)ethan-1-one], the “% of control remaining” value amounted to 102.439%.

In the case of `CC1CCCCC1NC(=O)C(C#N)=Cc1ccc(N2CCOCC2)cc1` (stereo not shown) [8-I06, 2-cyano-N-(2-methylcyclohexyl)-3-[4-(morpholin-4-yl)phenyl]prop-2-enamide], the “% of control remaining” value is reported as 101.245%.

In the case of `O=C(CCl)NCc1ccccc1[N+](=O)[O-]` [6-A22, 2-chloro-N-[(2-nitrophenyl)methyl]acetamide], the “% of control remaining” value is recorded as 100.39%.

Turning to `COc1ccc2nnc(CNC(=O)C(C)Cl)n2n1` (stereo not shown) [7-J15, 2-chloro-N-({6-methoxy-[1,2,4]triazolo[4,3-b]pyridazin-3-yl}methyl)propanamide], the “% of control remaining” value is listed as 100.471%.

As to `COc1cc2c(cc1NC(=O)C(C)Cl)oc1ccccc12` (stereo not shown) [6-G09, 2-chloro-N-{4-methoxy-8-oxatricyclo[7.4.0.0,2,7]trideca-1(9),2(7),3,5,10,12-hexaen-5-yl}propanamide], the “% of control remaining” value worked out at 106.878%.

With `N#CC(=Cc1ccc(N2CCOCC2)cc1)C(=O)Nc1nccs1` [9-F17, 2-cyano-3-[4-(morpholin-4-yl)phenyl]-N-(1,3-thiazol-2-yl)prop-2-enamide], the “% of control remaining” value is 100.075%.

Turning to `C=CC(=O)Nc1ccc(F)cc1C(C)(F)F` [1-C16, N-[2-(1,1-difluoroethyl)-4-fluorophenyl]prop-2-enamide], the “% of control remaining” value amounted to 103.385%.

With `C=CC(=O)Nc1ccc(C(=O)N[C@@H]2CCN(C(C)=O)C2)cc1` [2-F20, N-[(3R)-1-acetylpyrrolidin-3-yl]-4-(prop-2-enamido)benzamide], the “% of control remaining” value stood at 124.282%.

`CC(=O)Nc1ccc(C=C(C#N)C(=O)Nc2cccc(C)c2C)cc1` [9-D19, 2-cyano-N-(2,3-dimethylphenyl)-3-(4-acetamidophenyl)prop-2-enamide]: the “% of control remaining” value came out at 95.8801%.

For the compound `O=C(Nc1nccs1)N1CCSSCC1` [10-O22, N-(1,3-thiazol-2-yl)-1,2,5-dithiazepane-5-carboxamide], the “% of control remaining” value is given as 109.063%.

Take `C=CC(=O)NCc1c(F)cccc1S(=O)(=O)N(C)C` [3-L15, N-{[2-(dimethylsulfamoyl)-6-fluorophenyl]methyl}prop-2-enamide]: the “% of control remaining” value is 105.529%.

Take `C=CC(=O)N1CCC(C(O)c2ccnn2C)CC1` (stereo not shown) [3-K03, 1-{4-[hydroxy(1-methyl-1H-pyrazol-5-yl)methyl]piperidin-1-yl}prop-2-en-1-one]: the “% of control remaining” value is reported as 89.8563%.

As to `Cc1ccccc1C(C)NC(=O)C(C#N)=Cc1ccco1` (stereo not shown) [9-E06, 2-cyano-3-(furan-2-yl)-N-[1-(2-methylphenyl)ethyl]prop-2-enamide], the “% of control remaining” value is given as 84.794%.
